Usually % Inhibition stands for the relative decrease from the control value, in per cent.

The whole screen tested about 150,000 compounds, of which about 540 (0.36%) showed an effect of 50% or more. Some of the results follow.

Consider 42 compounds from ChEMBL document CHEMBL4888484, “Replenishing the malaria drug discovery pipeline: Screening and hit evaluation of the MMV Hit Generation Library 1 (HGL1) against asexual blood stage Plasmodium falciparum ,using a nano luciferase reporter read-out” (2022).

This assay concerns Plasmodium falciparum. As to the kind of experiment: Primary screen in NF54 nanoGlo assay, in single point, at 2uM, 72h; a lower Z score goes with more inhibition. The assay is classed as functional, Erythrocyte. Particulars: timepoint 72 hour.
`CC(C)c1nc2n(n1)[C@]1(CCS(=O)(=O)C1)Nc1ccccc1-2`: the “% Inhibition” value is given as -4% and the Z score was 0.35.

Take `CCC[C@H](C#N)c1ccc(Cl)cc1Cl`: the “% Inhibition” value is recorded as -1% and the Z score came out at 0.09.

With `COC(=O)N1CC[C@H](Nc2nc3c(cc2C#N)CCC3)C1`, the “% Inhibition” value is recorded as -5% and the Z score turned out to be 0.8.

Take `c1ccc2c(c1)CN=C2N1CCCCC1`: the “% Inhibition” value is given as -1% and the Z score came to 0.11.

In the case of `CCc1cc(-c2cccc(C(=O)NCCN3CCCC[C@@H]3CO)c2)nc(C)n1`, the “% Inhibition” value was 2% and the Z score is recorded as -0.29.

As for `Cc1[nH]cnc1CC(=O)NC[C@]1(O)CCCC1(C)C`, the “% Inhibition” value is on record as -9% and the Z score is 1.59.

`COC[C@@](C)(O)CNC(=O)COc1ccccc1C`: the “% Inhibition” value is -14% and the Z score is 1.98.

For `O=C(COc1ccccc1)N1CC(Cc2nncn2C2CCCC2)C1`, the “% Inhibition” value is given as -5% and the Z score was determined as 0.7.

For the compound `Cc1scc(C(=O)N[C@@H](Cc2ccncc2)C(=O)O)c1C`, the “% Inhibition” value was 1% and the Z score is recorded as -0.13.

For `O=C(c1ccncc1)N1CC[C@@]2(CCCN(Cc3ccc(F)c(F)c3)C2=O)C1`, the “% Inhibition” value was -17% and the Z score amounted to 1.58.

With `CCC[C@@H](CNC(=O)c1cc(C)c(O)c(C)c1)N(C)C`, the “% Inhibition” value is on record as 6% and the Z score is given as -0.85.

Turning to `CNC(=O)N1CCC(N2CC3(CCCCC3)[C@H]2c2ccncc2)CC1`, the “% Inhibition” value amounted to 1% and the Z score is -0.15.

In the case of `CCc1ccc(C(=O)N2CCCCCC2)o1`, the “% Inhibition” value is recorded as -17% and the Z score came to 3.11.

For `CC(C)OCc1cc(NC(=O)C2CCCCCC2)ccc1O`, the “% Inhibition” value was -15% and the Z score was found to be 2.29.

In the case of `CCc1ccc(NC(=O)Cn2nc3n(c2=O)CCN(CC)C3=O)cc1`, the “% Inhibition” value is recorded as -6% and the Z score stood at 1.07.

Regarding `COc1cc(C(=O)NCC#N)ccc1F`, the “% Inhibition” value is -1% and the Z score is recorded as 0.09.

For `CCc1ccc(CC(=O)N2CC(C)(C)[C@H]2c2cccnc2)nc1`, the “% Inhibition” value came to 6% and the Z score is -1.

As to `C[C@@H](c1ccncn1)N(C)Cc1cn(CCC(N)=O)c2ccccc12`, the “% Inhibition” value was determined as 16% and the Z score was -2.

As to `Cc1cc(NC(=O)C(C)(C)C#N)ccc1N(C)C`, the “% Inhibition” value is -5% and the Z score was 0.52.

Take `COc1c(CN[C@H](c2ccccc2)c2cccs2)c(C)nn1C`: the “% Inhibition” value is -5% and the Z score stood at 0.7.

Turning to `Cn1cnc(C(=O)N2CCC[C@H](N(Cc3cccnc3)C(=O)C3CCC3)C2)c1`, the “% Inhibition” value is given as -2% and the Z score is on record as 0.21.

Turning to `COc1ccc(OC)c(S(=O)(=O)Nc2ccc3ccn(C)c3c2)c1`, the “% Inhibition” value was determined as 5% and the Z score is recorded as -0.82.

For the compound `Cc1nn(-c2ccc(C(F)(F)F)cc2)c(C)c1[C@@H]1C=C[C@@H](NS(=O)(=O)c2ccccc2)C1`, the “% Inhibition” value is 4% and the Z score is recorded as -0.8.

For `O=C(Cc1cccnc1)NC1CCCCCC1CO` (centres undefined), the “% Inhibition” value is reported as -19% and the Z score worked out at 1.71.

For the compound `COc1ccc(F)cc1C(=O)N1CCC2(CC1)CC(=O)NC(=O)C2`, the “% Inhibition” value was -5% and the Z score was 0.66.

`CCc1ccc(C(C)C(=O)N2C[C@H](OC)C[C@H]2c2ncc[nH]2)cc1` (some centres undefined): the “% Inhibition” value is -1% and the Z score is 0.14.

Regarding `CCNC(=O)[C@H]1CCCN(c2nc3ncn(CC(=O)Nc4ccccc4OC)c(=O)c3s2)C1`, the “% Inhibition” value is -20% and the Z score was found to be 1.74.

For the compound `O=C(Cc1ccc(-c2ccccc2)cc1)N1CC[C@@H](CO)[C@@H](O)C1`, the “% Inhibition” value is given as -8% and the Z score stood at 1.14.

With `Cc1cc(C)nc(N[C@H](c2ccc(F)cc2)c2cc(C)sc2NC(=O)c2ccccc2)n1`, the “% Inhibition” value came to 36% and the Z score is -4.86.

Consider `C[C@H]1Cc2cnccc2N1S(=O)(=O)c1cnn(C2CCC2)c1`, for which the “% Inhibition” value is listed as 7% and the Z score is -1.37.

With `COc1cccc2c(=O)c(C#N)cn(Cc3ccccc3)c12`, the “% Inhibition” value was -24% and the Z score turned out to be 2.31.

Turning to `O=C(C[C@@H]1CCNC[C@@H]1Cc1cc(COc2ccccc2)on1)NCc1ccc(F)cc1`, the “% Inhibition” value was determined as 42% and the Z score is reported as -1.64.

On to `Cc1cc(OC2CCN(C(=O)c3cc4ccccc4s3)CC2)nc(C)n1`, for which the “% Inhibition” value is given as -10% and the Z score is 1.82.

For the compound `CC(=O)N[C@H]1CN(S(=O)(=O)Cc2ccccc2Cl)C[C@@H]1C1CC1`, the “% Inhibition” value was -1% and the Z score worked out at 0.18.

For the compound `COCc1ncsc1C(=O)N[C@H]1CC(C)(C)CCc2ccccc21`, the “% Inhibition” value was -14% and the Z score was 1.39.

As for `COCCN1CCC(CN(Cc2ccncc2)C(=O)c2ccc(F)c(C)c2)CC1`, the “% Inhibition” value was -8% and the Z score is 1.57.

Take `COc1ccc(NS(=O)(=O)c2ccc(F)cc2)cc1N1CCCN(Cc2cccc(C)c2)C1=O`: the “% Inhibition” value is -10% and the Z score turned out to be 1.42.

For `O=C(NCCc1nccn1Cc1ccccc1)C1C2CC1CN(Cc1ccccc1)C2` (centres undefined), the “% Inhibition” value is reported as 0% and the Z score was 0.02.

`O=C(NCCc1noc(C(F)(F)F)n1)c1ncoc1C1CC1`: the “% Inhibition” value is on record as -4% and the Z score was determined as 0.59.

Consider `CNc1cc(-c2cccc(C(=O)N3CCC4(CCO4)CC3)c2)nc(N)n1`, for which the “% Inhibition” value was -25% and the Z score worked out at 2.52.

`COc1ccc(N2CN3O[C@]4(CC[C@H]5C[C@@H]4C5(C)C)C[C@@]3(c3ccccc3)C2)cc1`: the “% Inhibition” value is listed as -40% and the Z score was 4.72.

For `CCCNC(=O)CN(Cc1cccs1)c1ccc(OC)cc1`, the “% Inhibition” value is recorded as -9% and the Z score is 1.11.
